The record followed here is the supplement of paper PMC6531468.

This is one part of the list. Read counts after selection give these values, which scatter widely. Each score is taken over the longer molecules that contain the sequence shown.

Experiment in all cases: 6-mer SELEX enrichment z-score vs GST control; IMP3 is the RNA-binding protein IGF2BP3; higher = more enriched by binding
The subject of experiment [1] is IMP3 KH1-4. Conditions: construct: KH1-4 (164-579); SELEX round: R4. How it is done:
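SELEX-seq with GST-tagged IMP3 KH1-4 (Pro164-Lys579) and an N40 RNA pool, round 4. 6-mer z-score of sequence-tag enrichment normalised to the corresponding GST SELEX round; RNA k-mers written as DNA (T for U).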

In experiment [2] the test system is IMP3 RRM1-2. Conditions: construct: RRM1-2 (1-163); SELEX round: R2. The method, then:
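SELEX-seq with GST-tagged IMP3 RRM1-2 (Met1-Asn163) and an N40 RNA pool, round 2. 6-mer enrichment z-score normalised to GST SELEX. RNA written as DNA (T = U).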

The target in experiment [3] is IMP3 full-length (UniProt O00425). Conditions: construct: FL IMP3 (1-579); SELEX round: R4. The method, then: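 SELEX-seq with GST-tagged full-length IMP3 and an N40 RNA pool, round 4. Each 6-mer is scored as an enrichment z-score of sequence tags containing it, normalised to the matching GST SELEX round. RNA written as DNA (T = U).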
In experiment [4] the test system is IMP3 KH1-2. Conditions: construct: KH1-2 (164-376); SELEX round: R4. How it is done:
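SELEX-seq with GST-tagged IMP3 KH1-2 (Pro164-Phe376) and an N40 RNA pool, round 4 (stringent 300/600 mM KCl washes). 6-mer z-score of sequence-tag enrichment normalised to the corresponding GST SELEX round; RNA k-mers written as DNA (T for U).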

Experiment [5] has as its system IMP3 KH3-4. The note with it: construct: KH3-4 (377-579); SELEX round: R4. The method, then: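 SELEX-seq with GST-tagged IMP3 KH3-4 (Pro377-Lys579) and an N40 RNA pool, round 4. 6-mer z-score of sequence-tag enrichment normalised to the corresponding GST SELEX round; RNA k-mers written as DNA (T for U).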

Sequence of IMP3 RRM1-2 (chain, as listed by the source): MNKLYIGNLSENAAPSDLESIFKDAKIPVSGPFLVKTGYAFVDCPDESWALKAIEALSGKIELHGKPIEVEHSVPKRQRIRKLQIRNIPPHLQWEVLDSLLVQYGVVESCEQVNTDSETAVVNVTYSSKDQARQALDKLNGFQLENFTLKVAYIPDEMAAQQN
Sequence of UniProt O00425 (O00425 whole entry): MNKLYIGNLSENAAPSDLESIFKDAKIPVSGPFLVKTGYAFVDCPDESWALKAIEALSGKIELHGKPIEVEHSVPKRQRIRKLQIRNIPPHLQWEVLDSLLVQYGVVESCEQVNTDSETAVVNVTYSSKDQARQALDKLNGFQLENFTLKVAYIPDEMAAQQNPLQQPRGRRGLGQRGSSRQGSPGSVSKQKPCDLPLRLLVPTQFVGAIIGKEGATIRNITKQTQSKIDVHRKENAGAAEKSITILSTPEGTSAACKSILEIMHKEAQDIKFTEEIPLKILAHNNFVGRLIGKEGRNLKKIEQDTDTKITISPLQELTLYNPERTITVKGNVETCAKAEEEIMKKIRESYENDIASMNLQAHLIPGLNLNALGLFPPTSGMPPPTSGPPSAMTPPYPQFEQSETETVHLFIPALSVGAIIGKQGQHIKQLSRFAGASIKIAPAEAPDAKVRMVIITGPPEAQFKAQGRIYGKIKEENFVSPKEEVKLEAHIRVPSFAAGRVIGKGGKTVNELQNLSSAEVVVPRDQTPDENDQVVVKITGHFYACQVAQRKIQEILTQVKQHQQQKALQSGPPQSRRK
Sequence of IMP3 KH1-2 (chain, as listed by the source): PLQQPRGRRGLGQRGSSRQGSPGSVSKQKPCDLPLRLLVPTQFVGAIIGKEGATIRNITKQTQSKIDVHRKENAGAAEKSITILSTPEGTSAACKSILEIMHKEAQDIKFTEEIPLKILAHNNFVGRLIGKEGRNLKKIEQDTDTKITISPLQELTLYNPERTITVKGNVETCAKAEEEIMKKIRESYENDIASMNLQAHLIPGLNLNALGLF
Sequence of IMP3 KH1-4 (chain, as listed by the source): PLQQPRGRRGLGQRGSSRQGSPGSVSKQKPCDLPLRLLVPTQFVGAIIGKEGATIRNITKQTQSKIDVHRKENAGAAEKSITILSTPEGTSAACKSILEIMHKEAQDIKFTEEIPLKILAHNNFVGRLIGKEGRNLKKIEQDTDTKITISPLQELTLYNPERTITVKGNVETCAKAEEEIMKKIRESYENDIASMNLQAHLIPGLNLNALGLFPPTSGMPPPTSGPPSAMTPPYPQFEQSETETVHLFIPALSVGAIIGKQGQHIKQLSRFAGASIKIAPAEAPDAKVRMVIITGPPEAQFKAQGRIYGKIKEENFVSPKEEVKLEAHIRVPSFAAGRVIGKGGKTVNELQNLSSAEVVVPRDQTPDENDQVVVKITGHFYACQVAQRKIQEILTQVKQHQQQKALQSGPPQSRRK
Sequence of IMP3 KH3-4 (chain, as listed by the source): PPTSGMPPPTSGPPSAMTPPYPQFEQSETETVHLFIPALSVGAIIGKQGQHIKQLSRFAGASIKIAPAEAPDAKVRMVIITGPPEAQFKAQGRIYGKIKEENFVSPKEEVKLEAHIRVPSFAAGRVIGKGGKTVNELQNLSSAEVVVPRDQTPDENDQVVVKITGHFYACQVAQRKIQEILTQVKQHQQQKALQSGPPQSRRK

GAGTGG: the “6-mer SELEX enrichment z-score” value in experiment [1] is -0.042; in experiment [2], -0.034; in experiment [3] it was 0.073; in experiment [4], 0.051; in experiment [5], 0.113.
For GTGAAA the same measures were -0.231, -1.37, -1.02, -0.432 and 0.148.
Regarding ACCGTA, the “6-mer SELEX enrichment z-score” value in experiment [1] is -0.967; in experiment [2], -0.767; in experiment [3], -0.751; in experiment [4], -0.782; in experiment [5] it was -1.08.
As for AGGGTT, the “6-mer SELEX enrichment z-score” value in experiment [1] stood at 0.209; in experiment [2], 0.235; in experiment [3] it was 0.224; in experiment [4], 0.263; in experiment [5], 0.43.
For ACAAAC the same measures were -0.042, 1.42, 0.327, 0.617 and -0.186.
Turning to GAGACA, the “6-mer SELEX enrichment z-score” value in experiment [1] is -0.316; in experiment [2] it was -0.539; in experiment [3], -0.254; in experiment [4], -0.384; in experiment [5] it was -0.282.
As for TTCCTG, the “6-mer SELEX enrichment z-score” value in experiment [1] is 0.225; in experiment [2], 0.074; in experiment [3], -0.324; in experiment [4], 0.17; in experiment [5], -0.073.
For the sequence CGAAGG, the “6-mer SELEX enrichment z-score” value was -0.732 in experiment [1]; -0.775 in experiment [2]; -0.384 in experiment [3]; -0.547 in experiment [4]; -0.504 in experiment [5].
With CATTTC, the “6-mer SELEX enrichment z-score” value in experiment [1] stood at 1.13; in experiment [2], 1.26; in experiment [3], 1.37; in experiment [4], 1.24; in experiment [5], 0.716.
For TATATA the same measures were 1.73, 0.139, 0.503, 1.69 and 2.53.
For TGATTA, the “6-mer SELEX enrichment z-score” value is 1.08 in experiment [1]; -0.231 in experiment [2]; -0.139 in experiment [3]; 0.801 in experiment [4]; 1.56 in experiment [5].
The like results for GCACGC were, in that order, 1.19, 0.606, 1.67, 0.971 and 0.402.
Regarding CAAGTC, the “6-mer SELEX enrichment z-score” value is -0.016 in experiment [1]; 0.38 in experiment [2]; 0.435 in experiment [3]; -0.249 in experiment [4]; -0.345 in experiment [5].
For GTTACC the same measures were -0.675, 0.03, -0.402, -0.673 and -0.782.
In the case of GTCTCG, the “6-mer SELEX enrichment z-score” value was -0.067 in experiment [1]; 0.791 in experiment [2]; 0.635 in experiment [3]; 0.137 in experiment [4]; 0.252 in experiment [5].
For the sequence CGGCCC, the “6-mer SELEX enrichment z-score” value is 0.84 in experiment [1]; -0.348 in experiment [2]; 1.45 in experiment [3]; 0.757 in experiment [4]; -0.001 in experiment [5].
The like results for CGCATT were, in that order, 0.381, 0.636, 0.62, 0.244 and 0.104.
On to CACTAC, for which the “6-mer SELEX enrichment z-score” value worked out at 1.07 in experiment [1]; 2.15 in experiment [2]; 0.636 in experiment [3]; 1.27 in experiment [4]; 0.408 in experiment [5].
For CTTGCA the same measures were 0.065, 0.28, 0.082, 0.032 and -0.155.
The like results for TGGAGG were, in that order, 0.699, 0.023, 0.393, 0.721 and 0.653.
The like results for CGATGT were, in that order, -0.463, -0.386, -0.467, -0.477 and -0.35.
In the case of GCTCGC, the “6-mer SELEX enrichment z-score” value in experiment [1] was -0.15; in experiment [2] it was 0.282; in experiment [3], 0.44; in experiment [4], 0.014; in experiment [5], -0.187.
As for CGCAAA, the “6-mer SELEX enrichment z-score” value is -0.596 in experiment [1]; -0.725 in experiment [2]; -0.332 in experiment [3]; -0.442 in experiment [4]; -0.713 in experiment [5].
For GAGCGA the same measures were -3.78, -0.644, -1.61, -3.42 and -3.28.
For CGCACC the same measures were -0.085, -0.315, 0.426, -0.092 and -1.01.
For CTCCAT the same measures were 0.62, 0.478, 0.373, 0.535 and 0.096.
ATTGTG: the “6-mer SELEX enrichment z-score” value was 0.608 in experiment [1]; 0.103 in experiment [2]; -0.026 in experiment [3]; 0.298 in experiment [4]; 0.647 in experiment [5].
For the sequence CAGAAC, the “6-mer SELEX enrichment z-score” value in experiment [1] was 0.036; in experiment [2], 0.16; in experiment [3], 0.624; in experiment [4], 0.183; in experiment [5], -0.24.
The like results for ATTTGA were, in that order, 0.733, -0.266, -0.232, 0.454 and 1.24.
The like results for GAGAGG were, in that order, 1.23, -0.635, 0.4, 1.1 and 1.12.
